# Measurements: the supplement of paper PMC3334620
# In all, about 33,000 sequences were measured (“E-score (-0.5 to 0.5)”: median about -0.053, highest 2% from about 0.37 on). This is one part of the list.
# Biological target: Hap1 (UniProt P0CE41)
# Experiment: PBM E-score (8-mer binding enrichment) (E-score (-0.5 to 0.5)); higher = stronger / more preferred TF binding; most listed sequences are background and not binding sites
# Conditions: protein concentration: 200 nM; construct: GST-DNA-binding domain
# How it was run: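 Bound GST-tagged yeast transcription factors, applied at about 100-200 nM to double-stranded universal all-10-mer Agilent arrays, were detected with fluorescent anti-GST. Scans were normalised with masliner. A modified Wilcoxon-Mann-Whitney statistic, the E-score, was assigned to each ungapped eight-base word pooled with its reverse complement by the Universal PBM Analysis Suite.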
# Chain of UniProt P0CE41 (P0CE41 whole entry): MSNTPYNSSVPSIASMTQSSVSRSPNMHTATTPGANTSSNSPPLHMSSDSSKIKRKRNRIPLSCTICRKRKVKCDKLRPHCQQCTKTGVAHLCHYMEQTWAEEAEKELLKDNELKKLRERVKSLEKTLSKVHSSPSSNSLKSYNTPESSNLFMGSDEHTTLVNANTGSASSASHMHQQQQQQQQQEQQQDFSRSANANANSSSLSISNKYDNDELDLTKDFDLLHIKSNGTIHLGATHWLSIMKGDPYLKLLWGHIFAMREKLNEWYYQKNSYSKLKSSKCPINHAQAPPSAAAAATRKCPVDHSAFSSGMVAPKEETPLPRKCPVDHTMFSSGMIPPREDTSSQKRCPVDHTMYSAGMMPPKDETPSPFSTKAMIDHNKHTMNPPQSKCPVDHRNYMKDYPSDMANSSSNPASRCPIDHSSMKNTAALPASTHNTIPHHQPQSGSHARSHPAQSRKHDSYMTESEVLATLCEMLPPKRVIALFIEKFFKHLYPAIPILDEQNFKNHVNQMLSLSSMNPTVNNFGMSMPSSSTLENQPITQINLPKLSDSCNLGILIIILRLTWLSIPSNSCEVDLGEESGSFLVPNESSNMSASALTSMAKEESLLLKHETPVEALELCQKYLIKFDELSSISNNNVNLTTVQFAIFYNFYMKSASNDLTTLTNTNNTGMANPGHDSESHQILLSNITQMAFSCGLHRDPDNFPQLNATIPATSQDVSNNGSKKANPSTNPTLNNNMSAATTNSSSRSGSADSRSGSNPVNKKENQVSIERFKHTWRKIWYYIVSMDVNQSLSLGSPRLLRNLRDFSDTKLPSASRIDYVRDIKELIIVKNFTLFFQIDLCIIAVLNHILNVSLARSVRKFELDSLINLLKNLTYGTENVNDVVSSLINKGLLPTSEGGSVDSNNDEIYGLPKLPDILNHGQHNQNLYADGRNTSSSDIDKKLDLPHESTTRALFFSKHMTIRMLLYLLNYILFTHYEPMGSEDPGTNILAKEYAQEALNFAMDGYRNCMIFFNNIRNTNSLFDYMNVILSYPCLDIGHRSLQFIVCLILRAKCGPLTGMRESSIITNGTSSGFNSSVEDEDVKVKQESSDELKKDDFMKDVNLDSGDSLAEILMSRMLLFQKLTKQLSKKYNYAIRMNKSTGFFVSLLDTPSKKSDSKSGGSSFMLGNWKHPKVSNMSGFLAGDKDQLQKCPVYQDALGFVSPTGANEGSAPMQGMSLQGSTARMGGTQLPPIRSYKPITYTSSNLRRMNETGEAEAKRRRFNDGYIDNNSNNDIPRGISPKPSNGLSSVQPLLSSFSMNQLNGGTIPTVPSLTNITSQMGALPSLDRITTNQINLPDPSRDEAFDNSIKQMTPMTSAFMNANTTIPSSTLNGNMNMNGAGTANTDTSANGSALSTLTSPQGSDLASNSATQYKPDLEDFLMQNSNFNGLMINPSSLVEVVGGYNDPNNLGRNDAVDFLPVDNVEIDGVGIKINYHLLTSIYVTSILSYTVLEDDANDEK
row,Sequence,PBM E-score
1,CGTTATAC,0.023
2,CCTCGGCC,0.346
3,ACACCCAC,-0.0615
4,CAAATAAG,0.0685
5,AGTAACTA,-0.0567
6,AATTGAGG,0.00911
7,AAGATCCT,-0.0836
8,GCCCAAGA,-0.22
9,ATATATCA,0.0242
10,GTGCATAA,-0.00941
11,GTGGTCCA,-0.181
12,ACCAAACT,-0.13
13,ACCATGAA,0.00818
14,AGTTGGCC,-0.155
15,GCTTCCAC,0.0486
16,ATGCCAGA,-0.2
17,CGGGCGCC,0.125
18,AGAGGGGC,-0.234
19,GCTGTAAC,0.061
20,AATCACCC,0.137
21,AAAGATAC,-0.0584
22,ACCGCCTC,0.0176
23,AAGGCAAC,-0.111
24,CAGATTTA,0.0647
25,ACGGGACA,0.203

row,Sequence,PBM E-score
1,AAGGTCGC,0.126
2,ACAGATCT,-0.169
3,CTATTCAG,-0.306
4,AGCTCCTG,-0.134
5,AATAAAGG,-0.212
6,TGAGTTAA,-0.188
7,CCCAAGAG,-0.178
8,AGGGCACC,-0.12
9,AGAAGCCG,0.275
10,GTGGTGTA,-0.176
11,AGCGACTC,-0.124
12,GCTAGTCA,-0.209
13,CGCAGAGA,-0.263
14,GGTGAAAA,0.22
15,AATAAATA,0.212
16,CACCCGAG,0.268
17,ACTTGGCT,-0.208
18,AGCTATTC,-0.0945
19,GGCGCTCA,0.00056
20,CTAACAGA,-0.101
21,GATCTCCC,-0.0839
22,ACAACAAT,-0.237
23,ATGCAGTC,-0.2
24,AAGTCGTA,-0.342
25,ATATATCG,0.34

row,Sequence,PBM E-score
1,GGGGGCAA,-0.0427
2,ACTCCCTG,-0.23
3,CAGACCTC,-0.0611
4,CAGGGCAA,-0.195
5,AGTCAACA,-0.232
6,TACGGCGA,0.134
7,GTACAATA,-0.205
8,GGCGGCGA,0.213
9,AGAGCATC,-0.0993
10,CCGAGTAC,0.358
11,CCTATAAC,-0.188
12,CAAAATAG,-0.181
13,AGCATGGA,-0.242
14,AGCGACAG,0.118
15,CATCAAGA,-0.143
16,AACGTAAC,-0.105
17,AAAAGTCT,-0.114
18,TGAATACA,-0.0875
19,ACAACCCA,-0.0643
20,AGTGCATC,-0.192
21,AAGGGAGG,-0.0176
22,AAGGCGGA,0.123
23,CGTCGACG,0.229
24,GTAGTTGA,-0.192
25,CCAGGATA,-0.0904

row,Sequence,PBM E-score
1,CATGCGGA,0.236
2,ACACACAG,-0.136
3,AGTGCACC,0.0417
4,ACGTTATA,-0.113
5,ATGATGAG,-0.233
6,CAGCACGC,-0.111
7,CGCACCCA,-0.127
8,GTCTACTA,-0.154
9,ACAACGGC,0.183
10,CGCTTCAG,-0.0473
11,GCACCTCA,-0.088
12,CATCTTAA,-0.119
13,CGAGGTAG,0.0618
14,AACCTGAG,-0.167
15,CTCAACGC,-0.217
16,AAATGACG,0.0199
17,GCAGGCCA,-0.118
18,GAATATGA,-0.129
19,AGGGTCTA,0.00504
20,CCCAAACG,-0.0556
21,GAAAGAGC,-0.138
22,ATGCACGG,0.103
23,CCCACGGC,0.0303
24,ATCCCACA,-0.172
25,ACGGGGTC,0.0962

row,Sequence,PBM E-score
1,ATTCAGCC,-0.0588
2,ACGGCGCA,0.112
3,CGAAAGAC,0.142
4,GGTGTAAC,0.147
5,CATTAGTC,0.0471
6,ACCGTTGG,-0.0793
7,ACATGAGG,-0.274
8,CTTTTACA,-0.0446
9,ATCAGAAG,-0.184
10,AGGCAGCG,-0.11
11,CACCTCAC,-0.0522
12,CTTGTATC,-0.0114
13,GCCGGACC,0.341
14,GATGTCCA,-0.03
15,TGAGTGAA,-0.193
16,GTAGGGCA,-0.172
17,ATCCCTTG,-0.16
18,CAAGGAAG,-0.132
19,GAGATACC,0.227
20,AAATCGTG,0.00265
21,TACCGCGA,0.173
22,GTGAAAGA,-0.014
23,AGTAGTTG,-0.0614
24,CTGACCTC,-0.174
25,AACCTCCC,0.0424

row,Sequence,PBM E-score
1,CGGTGATA,0.428
2,GGAATTTA,0.297
3,AAGCAACT,-0.0805
4,CTATCGCC,0.102
5,CAGATTCC,0.161
6,CCGTTAGC,0.218
7,CGCTAATC,0.0862
8,AAAAAACG,0.0042
9,ATACAATA,0.195
10,ACCCTCGC,-0.00236
11,CATGAGAG,-0.154
12,AGGCGTTG,-0.0743
13,ACACCTCC,0.0128
14,GTGGATCA,-0.21
15,ACCAATCT,-0.0601
16,CTGATGAC,-0.156
17,GCGGATGA,0.256
18,ACCATTCC,0.0406
19,ACGGACAG,0.113
20,AGCAAGGG,-0.102
21,GAGCCGGA,0.379
22,AAAGAACG,-0.105
23,CTTTGTAA,-0.186
24,AACGTACC,-0.0889
25,AGTAACCG,0.106

row,Sequence,PBM E-score
1,CGTTGGAA,-0.00474
2,AACATTGC,-0.0896
3,CCTCCCCA,-0.168
4,AACTCAGC,0.00165
5,CGTAGGGA,-0.133
6,CAATGAAA,-0.287
7,ATAGTGTA,-0.141
8,GGGATACC,0.196
9,CACAAGAA,-0.0278
10,AAGCAAAC,-0.023
11,AGGATGGG,-0.145
12,AAGCTTCT,-0.124
13,AGTTTTCA,-0.0278
14,ACGCGAGT,0.128
15,CATAGCAG,-0.303
16,GGTCGACA,-0.0217
17,AGATATAG,-0.0888
18,AGGTCTAG,-0.229
19,GATACCAC,0.205
20,ACGAGCTC,0.00515
21,TGTCTGAA,-0.173
22,ACAGAGGG,-0.24
23,ATTGTATC,0.0599
24,ATCAACCG,0.176
25,CCCCAGGC,-0.192

row,Sequence,PBM E-score
1,CTCACGGA,0.221
2,ATTGGGAC,-0.132
3,ACACTGCC,0.0209
4,GTGAATAA,-0.145
5,ATGCTTTG,-0.204
6,AGGACCCT,-0.288
7,CGTAAAAA,-0.0257
8,AGACACAA,-0.0156
9,ATAATTAT,0.109
10,CCTCTACC,0.073
11,ACCTTTCT,-0.251
12,CTTGTGCC,-0.125
13,ATAAATGC,0.0248
14,GGGATTAC,0.248
15,GTCATCCA,-0.0614
16,ATTCGGCC,0.375
17,TATGCATA,-0.267
18,CTCAGAGA,-0.174
19,TGGTTAAA,-0.0634
20,ACTTTCCA,-0.00707
21,CATTTAGA,-0.0238
22,CGCACATC,0.0694
23,CTCTCGTC,-0.068
24,AATGGCCG,0.217
25,ATATCGTG,-0.0299

row,Sequence,PBM E-score
1,AAGGAACA,-0.0987
2,GAAGTGCC,0.0732
3,GCATTCTA,-0.172
4,AAAGCACG,-0.0743
5,CGAAAGGA,0.171
6,CACCCCCA,-0.266
7,AAGACCTG,-0.0727
8,AAAGCGAG,0.116
9,CCAAACAC,-0.151
10,GCGTGGGA,-0.14
11,AACCGCTG,-0.0744
12,AATACCAG,0.0158
13,ACGTGTCC,0.188
14,CTAGCTGA,-0.256
15,AGTTATCC,0.106
16,TGCGGGAA,0.209
17,GCTCAACC,-0.111
18,GAAATTGA,0.13
19,AGTAAGAA,-0.101
